Source: PubChem BioAssay AID938 (National Center for Advancing Translational Sciences (NCATS), 2007)
Where “and” joins values, the source holds several entries; their conditions need not be identical. Identical values can stand only once. Among all 73,000 compounds or so, about 1,800 (2.5%) were called active. Inconclusive results, whose numbers are uncertain, are shown with a selection of clear calls. Calls follow the shape of the dose curve; as a rule, active = well fitted activation curve with a large enough effect; inconclusive = small, poorly fitted or top-dose-only effect; inactive = no such curve, though single readings can be large or run the other way. Potencies of inconclusive entries are doubtful fits and often do not repeat.

Test: qHTS Assay for Agonists of the Thyroid Stimulating Hormone Receptor: Activators of Intracellular cAMP Concentrations in Parental HEK 293; also: nearly all actives have a fitted effect of over 55% in size; as to activation: % of control where 0% means no effect
Conditions: parental HEK293 CNG cAMP sensor, membrane potential fluorescence; activation: at 57.1 µM (top of the series)
In short: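 Parental HEK 293 cells stably expressing a cAMP-gated CNG channel were loaded with membrane potential dye containing 100 uM RO 20-1724 for 60 min. Compound added for 30 min; depolarization read as fluorescence intensity at 590 nm.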
Potency is read from the fitted curve at half-maximal effect; tags tell the direction and shape of the fitted curve.

Question: For `CCc1cc2c(s1)NC(=O)CN=C2c1cccs1`, which Potency is on record?
Answer: inconclusive: 15.8 µM [activator, partial curve]

Question: With `CC(C)c1cccc(C(C)C)c1O` as the compound, how does the Potency read?
Answer: inconclusive: 15.8 µM [activator, single point]

Question: Which Potency does the source give for `CCOC(=O)C1CCN(C(C)C(=O)c2c(C)[nH]c3cc(C)ccc23)CC1` (stereo not drawn) here?
Answer: inconclusive: 3.98 µM [activator, single point]

Question: With `Cc1nn(Cc2ccccc2)c(C)c1C(=O)OCC(=O)Nc1ccccc1SCC#N` as the compound, how does the Potency read?
Answer: inconclusive: 20 µM [activator, partial curve]

Question: For `c1cnc(N2CCC3(CCNCC3)CC2)nc1`, which Potency is on record?
Answer: inconclusive: 15.8 µM [activator, partial curve]

Question: For `CN1CCN(C(=O)COc2ccc3ccccc3c2Br)CC1`, which “activation” value is on record?
Answer: inactive: 4.69%

Question: Which Potency does the source give for `c1ccc(C[C@@H](c2ccccc2)N2CCCCC2)cc1` here?
Answer: inconclusive: 31.6 µM [activator, partial curve, poor fit]

Question: With `Cc1cc(C)cc(OP(=O)(Oc2cc(C)cc(C)c2)Oc2cc(C)cc(C)c2)c1` as the compound, how does the Potency read?
Answer: inconclusive: 15.8 µM [activator, partial curve, poor fit]

Question: With `COc1ccc(-n2c(O)c(C(C)=NC3CC3)c(=O)[nH]c2=O)cc1` as the compound, how does the Potency read?
Answer: inconclusive: 3.98 µM [activator, single point]

Question: For `O=S1OCC2C(CO1)C1(Cl)C(Cl)=C(Cl)C2(Cl)C1(Cl)Cl` (stereo not drawn), which “activation” value is on record?
Answer: inactive: 21.7%

Question: With `O=C(Nc1ccccc1OC(=O)N1CCCCC1)N1CCCCC1` as the compound, how does the Potency read?
Answer: inconclusive: 3.98 µM [activator, single point]

Question: For `[O-][n+]1onc2c1CCC1N(O)CCC21O` (stereo not drawn), which Potency is on record?
Answer: inconclusive: 6.31 µM [activator, single point]

Question: With `CCCN(CCC)[C@H]1CCc2c(F)ccc(O)c2C1` as the compound, how does the Potency read?
Answer: inconclusive: 39.8 µM [activator, single point]

Question: With `CC(=NCCC1=CCCCC1)c1c(O)n(C)c(=O)n(C)c1=O` as the compound, how does the Potency read?
Answer: inconclusive: 3.98 µM [activator, full curve, poor fit]

Question: For `Cc1cc(C)n(CCOC(=O)C2C(C=C(Cl)Cl)C2(C)C)n1` (stereo not drawn), which Potency is on record?
Answer: inconclusive: 31.6 µM [activator, single point]

Question: Which “activation” value does the source give for `COc1cc(-c2ccc(N)c(OC)c2)ccc1N` here?
Answer: inactive: -19.8%

Question: For `CCCCn1c(N)c(C(=O)OCC2CCCO2)c2nc3ccccc3nc21` (stereo not drawn), which Potency is on record?
Answer: inconclusive: 12.6 µM [activator, partial curve, poor fit]

Question: Which Potency does the source give for `CC(C)OC(=O)Cc1ccccc1` here?
Answer: inconclusive: 0.0063 µM [activator, full curve, poor fit]

Question: Which Potency does the source give for `C=C(CC1(CNP(=O)(c2ccccc2)c2ccccc2)CC1)c1ccccc1` here?
Answer: inconclusive: 12.6 µM [activator, partial curve]

Question: For `C[C@@H]1CC[C@@]2(OC1)O[C@H]1[C@@H](O)[C@H]3[C@@H]4CC[C@H]5C[C@@H](O[C@@H]6O[C@H](CO)[C@H](O[C@@H]7O[C@H](CO)[C@@H](O)[C@H](O[C@@H]8OC[C@@H](O)[C@H](O)[C@H]8O)[C@H]7O[C@@H]7O[C@H](CO)[C@@H](O)[C@H](O[C@@H]8O[C@H](CO)[C@@H](O)[C@H](O)[C@H]8O)[C@H]7O)[C@H](O)[C@H]6O)[C@H](O)C[C@]5(C)[C@H]4CC[C@]3(C)[C@H]1[C@@H]2C`, which Potency is on record?
Answer: inconclusive: 0.501 µM [activator, partial curve, poor fit]

Question: Which Potency does the source give for `COC(=O)[C@@H]1C[C@@]1(C)[C@@H](NP(=O)(c1ccccc1)c1ccccc1)c1ccccc1` here?
Answer: active: 1.26 µM

Question: Which Potency does the source give for `N#CC(C#N)=NNc1cccc(Cl)c1` here?
Answer: active: 0.631 µM

Question: With `COC1=CC(=O)O[C@@H](/C=C/c2ccc3c(c2)OCO3)C1` as the compound, how does the Potency read?
Answer: inconclusive: 39.8 µM [activator, single point]

Question: With `CCn1cc(C(=O)O)c(=O)c2cc(F)c(N3CCNCC3)cc21` as the compound, how does the Potency read?
Answer: inconclusive: 15.8 µM [activator, single point]

Question: For `O=C(NCC(c1cccnc1)N1CCN(c2ccc(F)cc2)CC1)Oc1ccccc1` (stereo not drawn), which Potency is on record?
Answer: inconclusive: 7.94 µM [activator, partial curve]

Question: With `CCOC(=O)c1cccc(NC2c3ccccc3C(=O)N2Cc2ccco2)c1` (stereo not drawn) as the compound, how does the Potency read?
Answer: inconclusive: 20 µM [activator, partial curve]

Question: For `C=CC(=C)C`, which Potency is on record?
Answer: inconclusive: 39.8 µM [activator, single point]

Question: Which Potency does the source give for `c1ccc(CN2CCC3(CCNCC3)CC2)cc1` here?
Answer: inconclusive: 25.1 µM [activator, single point]

Question: For `CCN(CC)CCCN=Cc1c(O)n(CCc2ccc(OC)c(OC)c2)c(=O)[nH]c1=O`, which “activation” value is on record?
Answer: inactive: 4.47%

Question: For `COc1ccc2[nH]cc(CCN)c2c1`, which Potency is on record?
Answer: inconclusive: 39.8 µM [activator, single point]

Question: Which “activation” value does the source give for `CNc1ccc2oc(C[C@@H]3O[C@@]4(CC[C@H]3C)O[C@@H]([C@@H](C)C(=O)c3ccc[nH]3)[C@@H](C)C[C@H]4C)nc2c1C(=O)O` here?
Answer: inactive: 12.2%

Question: For `CC(C)c1nccn1Cc1ccc(Cl)cc1Cl`, which Potency is on record?
Answer: active: 3.16 µM

Question: Which Potency does the source give for `C[N+](C)(C)CC#CCOC(=O)Nc1cccc(Cl)c1` here?
Answer: inconclusive: 3.16 µM [activator, single point]

Question: For `Cn1c(=O)oc2cc(S(=O)(=O)N3CCCC(C(=O)NCc4ccc5c(c4)OCO5)C3)ccc21` (stereo not drawn), which Potency is on record?
Answer: inconclusive: 25.1 µM [activator, single point]

Question: With `COc1ccc(P2(=O)Nc3ccccc3N2)cc1` as the compound, how does the “activation” value read?
Answer: inactive: 2.64%

Question: With `CCCC/C(C)=C/[C@@H](NP(=O)(c1ccccc1)c1ccccc1)c1ccccc1` as the compound, how does the Potency read?
Answer: active: 15.8 µM

Question: With `CN1[C@@H]2CC[C@H]1CC(O[C@@H](c1ccccc1)c1ccc(Cl)cc1)C2` (stereo partly drawn) as the compound, how does the Potency read?
Answer: active: 39.8 µM

Question: Which “activation” value does the source give for `CCOC(=O)C1CCN(/C=C2/C(=O)NC(=O)N(Cc3ccco3)C2=O)CC1` here?
Answer: inactive: 3.5%

Question: Which Potency does the source give for `CCCCc1ccc(C(=O)O)nc1` here?
Answer: inconclusive: 25.1 µM [activator, single point]

Question: Which Potency does the source give for `CC1N(P(=O)(c2ccccc2)c2ccccc2)CC(O)(c2ccccc2)CC12CC2` (stereo not drawn) here?
Answer: active: 15.8 µM

Question: With `Oc1ccc(Cl)cc1Cc1ccccc1` as the compound, how does the “activation” value read?
Answer: inactive: 34.6%

Question: For `CN(CC1COc2ccccc2O1)c1nc(-c2cccnc2)nc2ccccc12` (stereo not drawn), which Potency is on record?
Answer: active: 25.1 µM

Question: With `N#Cc1ccc(CN2CC[C@@]3(CCCN(C(=O)Oc4ccccc4)C3)C2)cc1` as the compound, how does the Potency read?
Answer: inconclusive: 12.6 µM [activator, partial curve]

Question: With `Oc1cc2c(cc1CN1CCN(c3ccccc3)CC1)CCC2` as the compound, how does the Potency read?
Answer: inconclusive: 39.8 µM [activator, single point]

Question: Which Potency does the source give for `N#CC(O)c1ccccc1` (stereo not drawn) here?
Answer: inconclusive: 39.8 µM [activator, single point]

Question: With `Oc1cccc(Cl)c1` as the compound, how does the “activation” value read?
Answer: inactive: 19.9%

Question: For `O=Cc1ccccc1`, which “activation” value is on record?
Answer: inactive: 8.19%

Question: With `CC(C)C(=O)c1cn(Cc2ccccc2C#N)c2ccccc12` as the compound, how does the Potency read?
Answer: active: 25.1 µM

Question: With `Cc1sc2c(c1C)C(c1cccs1)=NCC(=O)N2CC(=O)NCc1cccs1` as the compound, how does the Potency read?
Answer: inconclusive: 20 µM [activator, partial curve]

Question: Which Potency does the source give for `CCC(=NCc1ccc(F)cc1)c1c(O)n(C)c(=O)n(C)c1=O` here?
Answer: inconclusive: 15.8 µM [activator, partial curve, poor fit]

Question: For `Oc1c(Br)cc(Br)cc1Br`, which Potency is on record?
Answer: inconclusive: 31.6 µM [activator, partial curve, poor fit]

Question: With `CC(=O)[C@H]1CC[C@H]2[C@@H]3CCC4=CC(=O)CC[C@]4(C)[C@H]3CC[C@]12C` as the compound, how does the Potency read?
Answer: inconclusive: 10 µM [activator, full curve, poor fit] and inconclusive: 25.1 µM [activator, partial curve, poor fit]

Question: For `CCOC(=O)c1ccc(COC(=O)c2ccc(-c3nnc(-c4ccccc4)o3)cc2)o1`, which Potency is on record?
Answer: inconclusive: 20 µM [activator, partial curve]

Question: For `CN1CCN(C(=O)O[C@@H]2c3nccnc3C(=O)N2c2ccc(Cl)cn2)CC1`, which Potency is on record?
Answer: inconclusive: 39.8 µM [activator, single point]

Question: For `CC(C)c1ccc(O)c(CN2CCN(c3ccccc3)CC2)c1`, which Potency is on record?
Answer: inconclusive: 1 µM [activator, full curve, poor fit]

Question: With `Oc1cc(Cl)c(Cl)c(Cl)c1Cl` as the compound, how does the Potency read?
Answer: active: 39.8 µM

Question: For `C[C@@H]1Cc2cc3c(cc2C(c2ccc(N)cc2)=NN1)OCO3`, which “activation” value is on record?
Answer: inactive: 10.7%

Question: With `O=C(c1ccc2nc(-c3ccco3)c(-c3ccco3)nc2c1)N1CCC2(CC1)OCCO2` as the compound, how does the “activation” value read?
Answer: inactive: 18.9%

Question: Which Potency does the source give for `COC(=O)[C@@]1(Cc2ccccc2)[C@H]2c3cc(C(=O)N(C)C)[nH]c3C[C@H]2CN1C(=O)c1ccccc1` here?
Answer: inconclusive: 10 µM [activator, partial curve]

Question: Which Potency does the source give for `O=C1CC[C@@]2(O)[C@H]3Cc4ccc(O)c5c4[C@@]2(CCN3CC2CC2)[C@@H]1O5` here?
Answer: inactive

Question: With `Cn1c(O)c(C=NCCOc2ccc(Cl)cc2)c(=O)n(C)c1=O` as the compound, how does the “activation” value read?
Answer: inactive: -2.21%

Question: For `Nc1ccccc1C(=O)OC1CSC1`, which Potency is on record?
Answer: inconclusive: 25.1 µM [activator, single point]

Question: For `Cc1cccc(C2=NCC(=O)N(CC(=O)NCc3ccco3)c3sc4c(c32)CCCC4)c1`, which Potency is on record?
Answer: inconclusive: 39.8 µM [activator, single point]

Question: With `C[C@@]1([C@@H](NP(=O)(c2ccccc2)c2ccccc2)c2ccccc2)C[C@H]1CCO` as the compound, how does the Potency read?
Answer: active: 15.8 µM

Question: With `CCCc1cc2c(n1Cc1ccc(C)cc1)C(C)C1CN(C(=O)c3ccccc3)C(C)(C(=O)OC)C21` (stereo not drawn) as the compound, how does the Potency read?
Answer: inconclusive: 15.8 µM [activator, partial curve]

Question: For `CCCCn1c(O)c(C(CC)=Nc2ccc(OCC)cc2)c(=O)[nH]c1=O`, which Potency is on record?
Answer: inconclusive: 39.8 µM [activator, single point]

Question: With `O=C(O)[C@H]1C2c3ccccc3C(c3ccccc32)[C@@H]1C(=O)NCC1CC1` as the compound, how does the activation read?
Answer: inactive: 7.11% [at 11.4 µM]

Question: For `COc1ccc2c(c1O)-c1cccc3c1[C@H](C2)N(C)CC3`, which “activation” value is on record?
Answer: inactive: 12.5%
